Here are results for 6 compounds from the supplement of paper PMC11880418.

Structures can show the parent of a compound that is named as a salt. The list shows a part of the results. The data scatter; read single values as rough.
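Note: High-content imaging of ALDEFLUOR-stained cells with Hoechst-labelled nuclei in 384-well plates, triplicate wells, scored as Z-score against 0.1% DMSO vehicle, negative meaning fewer ALDHbr cells.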

The assay has as its system T84. Put plainly: ALDHbr (CSC) cell proportion score relative to DMSO vehicle (ratio to DMSO); breast (SUM159) / gastric (MKN45) / pancreatic (PANC1) / colon cancer lines; ALDHbr cells have high ALDH activity and are rich in cancer stem cells (CSC); higher = more CSC (ALDHbr) cells remaining. The following applies: 10 µM; 72 h.
On to `COCC(=O)Nc1c(I)c(C(=O)NCC(O)CO)c(I)c(C(=O)N(C)CC(O)CO)c1I` (stereo unspecified) [Iopromide], for which the ALDHbr came to 0.992. With `CN(CCOc1ccc(CC2SC(=O)NC2=O)cc1)c1ccccn1` (stereo unspecified) [Rosiglitazone Hydrochloride] the figure was 0.668; with `CCCCNC(=O)NS(=O)(=O)c1ccc(C)cc1` [Tolbutamide], 0.849.

For `CCc1cc(C(N)=S)ccn1` [Ethionamide], the ALDHbr came to 0.951. `CC(C)NCC(O)COc1ccc(CCOCC2CC2)cc1` (stereo unspecified) [Betaxolol hydrochloride]: the ALDHbr was determined as 1.06. In the case of `COc1ccc2cc([C@H](C)C(=O)O)ccc2c1` [Naproxen] it was 1.08.
